{"source": "ChEMBL document CHEMBL4888484", "about": "“Replenishing the malaria drug discovery pipeline: Screening and hit evaluation of the MMV Hit Generation Library 1 (HGL1) against asexual blood stage Plasmodium falciparum ,using a nano luciferase reporter read-out” (2022)", "note": "Among all 150,000 compounds or so, about 540 (0.36%) showed an effect of 50% or more. The list shows a part of the results.", "data": [{"tested_on": "Plasmodium falciparum", "assay": "Primary screen in NF54 nanoGlo assay, in single point, at 2uM, 72h; a lower Z score goes with more inhibition", "type": "functional, Erythrocyte", "conditions": "timepoint 72 hour", "units": {"% Inhibition": "%"}, "values": [{"smiles": "CN1CCC(NC(=O)c2nccnc2N)C1c1ccc(Cl)c(F)c1", "note": "(stereo unspecified)", "% Inhibition": -1, "Z score": 0.09}, {"smiles": "C[C@@H](c1cccc(Cl)c1F)N1CCCn2nncc2C1", "% Inhibition": -8, "Z score": 0.67}, {"smiles": "O=C(CC1CCNCC1F)Nc1nc(-c2ccc(OC(F)F)cc2)cs1", "note": "(stereo unspecified)", "% Inhibition": -11, "Z score": 1.8}, {"smiles": "CC(C)[C@H](NC(=O)[C@H]1CC[C@H](Cn2nnc3ccccc3c2=O)CC1)C(=O)O", "% Inhibition": -12, "Z score": 1.62}, {"smiles": "CC(C)[C@@](C)(O)CNC(=O)c1ccc(Cl)cc1Br", "% Inhibition": 11, "Z score": -2.04}, {"smiles": "CN1CC[C@H](N2CC3(CCC2=O)CCN(C(=O)c2ccc(O)cc2)CC3)C1", "% Inhibition": 8, "Z score": -1.07}, {"smiles": "CCN(CC)CCN[C@@H](C)c1cccc(OC)c1", "% Inhibition": -5, "Z score": 0.46}, {"smiles": "C[C@@H](C(=O)NCC(F)(F)F)N(C)CCc1ccc(F)cc1", "% Inhibition": -14, "Z score": 1.7}, {"smiles": "CCOC(=O)c1cnc2c(Cl)c(Cl)ccc2c1N(C)Cc1ccccc1", "% Inhibition": -5, "Z score": 0.74}, {"smiles": "COc1ccccc1[C@H](Nn1cnnc1)c1cccc(F)c1O", "% Inhibition": 1, "Z score": -0.08}, {"smiles": "CC(C)(C)OC(=O)NCCc1ccc2c(c1)CCCN2", "% Inhibition": -8, "Z score": 1.18}, {"smiles": "CCOc1ccc(C(=O)N(Cc2ccc(N(C)C)cc2)[C@H]2CCS(=O)(=O)C2)cc1", "% Inhibition": 2, "Z score": -0.45}, {"smiles": "CC(C)N1CCC(NC(=O)Nc2ccc3c(c2)OCO3)CC1", "% Inhibition": -4, "Z score": 0.78}, {"smiles": "COC(=O)NC[C@@H]1C[C@H](F)CN1C(=O)Cc1ccncc1", "% Inhibition": -16, "Z score": 1.87}, {"smiles": "O=C1NCCCCCCN(C(=O)COc2ccccc2)[C@H]2CCC[C@@H]12", "% Inhibition": 4, "Z score": -0.55}, {"smiles": "COc1cc(OC)c(NCc2csnn2)cc1Br", "% Inhibition": -7, "Z score": 0.87}, {"smiles": "CC(C)OCCCNC(=O)c1cnn[nH]1", "% Inhibition": 8, "Z score": -1.22}, {"smiles": "C[C@@H]1CN(C(=O)NCCc2noc(C3CCC3)n2)C[C@H](C)O1", "% Inhibition": -5, "Z score": 0.74}, {"smiles": "CCCNC(=O)N(CCN1CCOCC1)CC(=O)N1N=C(c2ccc(C)c(C)c2)C[C@H]1c1ccc2c(c1)OCO2", "% Inhibition": -27, "Z score": 2.64}, {"smiles": "CCOc1ncccc1C(=O)N[C@@H]1[C@@H]2CCO[C@@H]2[C@H]1N(C)C", "% Inhibition": -14, "Z score": 1.31}, {"smiles": "COc1cc(NC(C)=O)ccc1NC1CCC(C)C1", "note": "(stereo unspecified)", "% Inhibition": 7, "Z score": -0.86}, {"smiles": "Cc1cc2c(cc1NC(=O)NC[C@H]1Cc3ccccc31)OCO2", "% Inhibition": -2, "Z score": 0.26}, {"smiles": "Cc1nc(CN(C)CCN(C)C2CCCC2)n(C)c1C", "% Inhibition": -5, "Z score": 0.88}, {"smiles": "COc1ccc(C(=O)N2CCc3n[nH]cc3C2)cc1OC1CCN(C(C)C)CC1", "% Inhibition": -10, "Z score": 1.26}, {"smiles": "CC(C)CN1CC2(CCN(C(=O)C[C@H](C)n3ccnc3)CC2)CC1=O", "% Inhibition": -8, "Z score": 1.16}, {"smiles": "Cc1c(C(=O)NC2CCCCCCC2)sc2ncnc(N(C)C3CCCCC3)c12", "% Inhibition": -24, "Z score": 2.17}, {"smiles": "Cc1cc(C(=O)N2CCc3sccc3[C@@H]2C)no1", "% Inhibition": 3, "Z score": -0.35}, {"smiles": "Cc1nnc(N2CC(c3nc(-c4ccccc4)no3)C2)nc1C", "% Inhibition": -18, "Z score": 3.4}, {"smiles": "Cc1ccc(C)c(C(=O)N[C@@H]2COCC[C@@H]2OCc2ccccc2)c1", "% Inhibition": -5, "Z score": 0.79}, {"smiles": "CC(C)[C@@H]1CN(c2nnc(Cc3cn4ccccc4n3)n2C)CCO1", "% Inhibition": -2, "Z score": 0.26}, {"smiles": "CC(C)N(CC(=O)Nc1nc(-c2ccccc2)cn1-c1ccc(C(F)(F)F)cc1)C(=O)c1ccccc1F", "% Inhibition": 29, "Z score": -3.3}, {"smiles": "CCn1nc(C)c(C(=O)N2CCC[C@H](c3nccn3CC3CC3)C2)c1C", "% Inhibition": -17, "Z score": 1.61}, {"smiles": "Cc1nc(Cn2cccc(C(F)(F)F)c2=O)n(C)n1", "% Inhibition": -11, "Z score": 2.05}, {"smiles": "COc1ccc(NS(=O)(=O)c2cc(NCc3ccco3)cc(C(=O)NCCN(C)C)c2)cc1", "% Inhibition": 4, "Z score": -0.48}, {"smiles": "CCc1ccccc1NC(=O)CN(C)Cc1ncccc1Cl", "% Inhibition": -4, "Z score": 0.64}, {"smiles": "Cc1n[nH]c(C)c1-c1cnc2c(C#N)cnn2c1", "% Inhibition": -2, "Z score": 0.39}, {"smiles": "CCN(CC)C(N)=NCC1(N2CCOCC2)CCCCC1", "% Inhibition": 5, "Z score": -0.63}, {"smiles": "COc1cc2cc(c1)C(=O)NCCCC(=O)N[C@H]1CN(C(=O)c3[nH]c4c(C)cc(C)cc4c3C)CC[C@@H]1OCc1cccc(c1)O2", "% Inhibition": 6, "Z score": -0.86}, {"smiles": "CC(C)CCc1nc(N2CCCN(C(=O)c3ccccc3Cl)CC2)c2cnn(-c3cccc(Cl)c3)c2n1", "% Inhibition": 0, "Z score": 0.03}, {"smiles": "C[C@H]1CCCCN1CC(=O)NCCc1c[nH]c2ccccc12", "% Inhibition": -5, "Z score": 0.53}, {"smiles": "O=C(c1ccc(F)cc1F)N1CCCN(C(=O)C2(O)CCC2)CC1", "% Inhibition": -8, "Z score": 1.12}, {"smiles": "O[C@H]1CCN(Cc2csc3ccccc23)C1", "% Inhibition": -5, "Z score": 0.66}, {"smiles": "CC(C)n1cnnc1C[C@H]1CCN(C(=O)Nc2ccc3c(c2)OCCO3)C1", "% Inhibition": 0, "Z score": -0.02}, {"smiles": "CC(C)NC(=O)c1cc(C(C)(C)C)n[nH]1", "% Inhibition": -2, "Z score": 0.38}, {"smiles": "Cc1nc(NC[C@H](O)CN(C)C)ccc1Cl", "% Inhibition": -2, "Z score": 0.42}, {"smiles": "Cc1nc(CNC(=O)c2ccn(C(C)C)c2C)ccc1[C@H](C)O", "% Inhibition": 13, "Z score": -1.62}, {"smiles": "O=C(NCC1(c2ccsc2)CCOCC1)c1ccc(Oc2ccccc2)cc1", "% Inhibition": 11, "Z score": -1.72}, {"smiles": "COc1ccccc1-c1oncc1C(=O)NCCOC[C@H]1CCOC1", "% Inhibition": -3, "Z score": 0.73}, {"smiles": "CCn1ccc(C(=O)N2CC(N(CC(C)C)C3CCN(C)CC3)C2)n1", "% Inhibition": -13, "Z score": 1.73}, {"smiles": "Cc1ccc(CN(C(=O)CCN(C)[C@H]2CCS(=O)(=O)C2)C2CCCC2)s1", "% Inhibition": -4, "Z score": 0.64}, {"smiles": "O=C(CCNS(=O)(=O)c1ccc(F)c(F)c1)NCCc1nnc2ccccn12", "% Inhibition": -9, "Z score": 1.72}, {"smiles": "Cn1c(CCc2ccccc2NS(=O)(=O)c2cccc(C(F)(F)F)c2)nc2ccccc21", "% Inhibition": -6, "Z score": 0.76}, {"smiles": "Cc1cccc(CNC(=O)Nc2ccc(N3CCOCC3)nc2)n1", "% Inhibition": -5, "Z score": 0.89}]}]}
